Data from the supplement of paper PMC4967469.
By IC50 is meant the dose at which the fit gives 50% viability; a fit beyond the top or the lowest dose is shown as a bound at that dose. The AUC spans the tested range (256-fold, ending at the top dose) of the same fit; values near 1 show little effect. For some of these results: Any top dose called inferred was calculated from the reported fits.

Tests used:
Assay in all cases: Viability of human cancer cell lines after 72 h of drug (GDSC screen)
17-AAG = compound: C=CCNC1=C2C[C@@H](C)C[C@H](OC)[C@H](O)[C@@H](C)/C=C(\C)[C@H](OC(N)=O)[C@@H](OC)/C=C\C=C(/C)C(=O)NC(=CC1=O)C2=O [17-AAG]; conditions: top dose 1 µM
Method: (§1)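 Human cancer cell lines in 384-well plates, medium with 10% serum, drug for 72 h over a 256-fold dose range (nine 2-fold or five 4-fold steps up to the top dose). Adherent lines were fixed and stained with the nucleic acid dye Syto60, suspension lines read with resazurin; signal relative to control wells, capped at 0 and 100%. One two-parameter sigmoid per drug and line, fitted in a mixed model over all curves with the slope shared within a line.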

CCT018159 = compound: CCc1cc(-c2n[nH]c(C)c2-c2ccc3c(c2)OCCO3)c(O)cc1O [CCT018159]; conditions: top dose 10 µM; top dose inferred
Method: as §1

BIX02189 = compound: CN(C)Cc1cccc(N=C(c2ccccc2)c2c(O)[nH]c3cc(C(=O)N(C)C)ccc23)c1 [BIX02189]; conditions: top dose 20 µM; top dose inferred
Method: as §1

Dimethyloxalylglycine = compound: COC(=O)CNC(=O)C(=O)OC [Dimethyloxalylglycine]; conditions: top dose 4000 µM; top dose inferred
Method: as §1

Doxorubicin = compound: COc1cccc2c1C(=O)c1c(O)c3c(c(O)c1C2=O)C[C@@](O)(C(=O)CO)C[C@@H]3O[C@H]1C[C@H](N)[C@H](O)[C@H](C)O1 [Doxorubicin]; conditions: top dose 1.024 µM
Method: as §1

OSI-027 = compound: COc1cccc2cc(-c3nc([C@H]4CC[C@H](C(=O)O)CC4)n4ncnc(N)c34)[nH]c12 [OSI-027]; conditions: top dose 20 µM
Method: as §1

Vismodegib = compound: CS(=O)(=O)c1ccc(C(=O)Nc2ccc(Cl)c(-c3ccccn3)c2)c(Cl)c1 [Vismodegib]; conditions: top dose 10 µM; top dose inferred
Method: as §1

VX-11e = compound: Cc1cnc(Nc2ccc(F)cc2Cl)nc1-c1c[nH]c(C(=O)N[C@H](CO)c2cccc(Cl)c2)c1 [VX-11e]; conditions: top dose 5.12 µM; top dose inferred
Method: as §1

TG101348 = compound: Cc1cnc(Nc2ccc(OCCN3CCCC3)cc2)nc1Nc1cccc(S(=O)(=O)NC(C)(C)C)c1 [TG101348]; conditions: top dose 10.24 µM
Method: as §1

UNC1215 = compound: O=C(c1ccc(C(=O)N2CCC(N3CCCC3)CC2)c(Nc2ccccc2)c1)N1CCC(N2CCCC2)CC1 [UNC1215]; conditions: top dose 1 µM; top dose inferred
Method: as §1

Cell Line	AUC (17-AAG)	IC50 (17-AAG) [µM]	AUC (CCT018159)	IC50 (CCT018159) [µM]	AUC (BIX02189)	IC50 (BIX02189) [µM]	AUC (Dimethyloxalylglycine)	IC50 (Dimethyloxalylglycine) [µM]	AUC (Doxorubicin)	IC50 (Doxorubicin) [µM]	AUC (OSI-027)	IC50 (OSI-027) [µM]	AUC (Vismodegib)	IC50 (Vismodegib) [µM]	AUC (VX-11e)	IC50 (VX-11e) [µM]	AUC (TG101348)	IC50 (TG101348) [µM]	AUC (UNC1215)	IC50 (UNC1215) [µM]
Caov-4 (ovary, adherent)	0.979	> 1	0.964	> 10	0.93	> 20	0.915	> 4000	0.683	0.266	0.763	10.6	0.98	> 10	0.853	> 5.12	0.845	> 10.2	0.971	> 1
D-283MED (medulloblastoma, adherent)	0.928	> 1	0.937	> 10	0.991	> 20	0.624	531	0.722	0.255	0.991	> 20	0.983	> 10	0.913	> 5.12	0.991	> 10.2	0.987	> 1
D-502MG (glioma, adherent)	0.941	> 1	0.969	> 10	0.938	> 20	0.824	> 4000	0.881	> 1.02	0.557	1.94	0.973	> 10	0.958	> 5.12	0.731	4.29	0.964	> 1
DEL (lymphoid neoplasm, suspension)	0.804	0.379	0.887	7.12	0.963	> 20	0.269	65.4	0.414	0.0392	0.235	0.265	0.962	> 10	0.922	> 5.12	0.621	1.27	0.991	> 1
DJM-1 (skin, adherent)	0.881	> 1	0.894	> 10	0.968	> 20	0.484	227	0.582	0.107	0.884	> 20	0.961	> 10	0.972	> 5.12	0.956	> 10.2	0.986	> 1
DK-MG (glioma, adherent)	0.708	0.328	0.95	> 10	0.913	> 20	0.631	688	0.97	> 1.02	0.817	19.2	0.975	> 10	0.921	> 5.12	0.374	0.243	0.975	> 1
DMS-79 (small cell lung carcinoma, suspension)	0.898	> 1	0.955	> 10	0.959	> 20	0.909	> 4000	0.896	> 1.02	0.849	18.9	0.984	> 10	0.977	> 5.12	0.941	> 10.2	0.969	> 1
DSH1 (bladder, adherent)	0.452	0.0464	0.79	4.23	0.97	> 20	0.366	108	0.676	0.193	0.799	9.14	0.987	> 10	0.972	> 5.12	0.924	> 10.2	0.988	> 1
Detroit562 (head and neck, adherent)	0.467	0.051	0.847	6.92	0.988	> 20	0.613	504	0.699	0.226	0.936	> 20	0.981	> 10	0.985	> 5.12	0.952	> 10.2	0.987	> 1
EB2 (Burkitt lymphoma, suspension)	0.99	> 1	0.99	> 10	0.715	4.74	0.524	289	0.373	–	0.084	< 0.0781	0.99	> 10	0.963	> 5.12	0.477	0.559	0.989	> 1
EB-3 (Burkitt lymphoma, suspension)	0.983	> 1	0.947	> 10	0.781	9.77	0.261	45.8	0.866	> 1.02	0.125	< 0.0781	0.983	> 10	0.92	> 5.12	0.784	5.14	0.955	> 1
EBC-1 (lung squamous cell carcinoma, adherent)	0.282	0.0138	0.851	9.19	0.982	> 20	0.479	218	0.529	0.0776	0.51	1.34	0.95	> 10	0.902	> 5.12	0.885	> 10.2	0.977	> 1
ECC10 (stomach, suspension)	0.985	> 1	0.973	> 10	0.959	> 20	0.846	3120	0.672	0.198	0.503	1.27	0.951	> 10	0.913	> 5.12	0.821	6.27	0.972	> 1
EFO-21 (ovary, adherent)	0.924	> 1	0.96	> 10	0.915	> 20	0.51	269	0.731	0.397	0.719	6.94	0.978	> 10	0.977	> 5.12	0.793	7.19	0.977	> 1
EFO-27 (ovary, adherent)	0.573	0.104	0.787	5.57	0.905	> 20	0.612	549	0.576	0.109	0.627	3.07	0.972	> 10	0.833	4.5	0.884	> 10.2	0.978	> 1
EGI-1 (biliary tract, adherent)	0.951	> 1	0.898	> 10	0.97	> 20	0.531	312	0.745	0.408	0.468	0.999	0.968	> 10	0.85	> 5.12	0.925	> 10.2	0.979	> 1
EJM (lymphoid neoplasm, semi-adherent)	0.966	> 1	0.937	> 10	0.949	> 20	0.448	185	0.862	0.657	0.205	0.204	0.992	> 10	0.954	> 5.12	0.8	4.07	0.988	> 1
EM-2 (chronic myeloid leukaemia, suspension)	0.912	> 1	0.877	> 10	0.85	18.3	0.478	216	0.744	0.355	0.506	1.3	0.974	> 10	0.782	2.44	0.682	2.22	0.97	> 1
EW-3 (Ewing sarcoma, adherent)	0.954	> 1	0.97	> 10	0.86	> 20	0.773	1780	0.75	0.378	0.425	0.756	0.962	> 10	0.97	> 5.12	0.697	2.49	0.934	> 1
EW-13 (Ewing sarcoma, suspension)	0.983	> 1	0.982	> 10	0.683	4.31	0.24	40.1	0.256	0.0117	0.235	0.194	0.956	> 10	0.939	> 5.12	0.794	5.3	0.983	> 1
EW-18 (Ewing sarcoma, suspension)	0.966	> 1	0.962	> 10	0.879	> 20	0.707	1010	0.725	0.293	0.206	0.157	0.911	> 10	0.969	> 5.12	0.627	1.47	0.976	> 1
FU97 (stomach, adherent)	0.245	0.0113	0.901	> 10	0.955	> 20	0.496	244	0.588	0.113	0.65	3.31	0.958	> 10	0.96	> 5.12	0.872	10.2	0.984	> 1
FU-OV-1 (ovary, adherent)	0.916	> 1	0.935	> 10	0.937	> 20	0.841	> 4000	0.845	> 1.02	0.729	7.02	0.958	> 10	0.905	> 5.12	0.645	1.84	0.976	> 1
G-361 (melanoma, adherent)	0.746	0.307	0.936	> 10	0.946	> 20	0.739	1160	0.373	0.0291	0.954	> 20	0.988	> 10	0.845	3.46	0.988	> 10.2	0.987	> 1
G-402 (soft tissue, adherent)	0.514	0.0691	0.875	> 10	0.905	> 20	0.619	594	0.564	0.101	0.565	1.99	0.946	> 10	0.883	> 5.12	0.84	> 10.2	0.974	> 1
GDM-1 (acute myeloid leukaemia, suspension)	0.95	> 1	0.91	> 10	0.325	0.417	0.381	–	0.646	–	0.085	< 0.0781	0.987	> 10	0.856	3.86	0.383	0.309	0.984	> 1
